# Data published in the supplement of paper PMC10126150.
# Values marked as one replicate rest on one cluster of the flow cell; about a third of the high ones do not repeat.
# Tested on: ATP
# Test: switch fluorescence ratio, 500 uM ATP over buffer (Cy3 cluster intensity, sum of 5 cycles each) (fold (ratio)); higher = stronger signal-on switching upon ATP binding; sequences stand for … in TCGTCGGCAGCGTCAGATGTGTATAAGAGACAGTTTTTTTTTTTTTTTTTTTTTTTTT…TC
# Conditions: aptamer strand: ATP DNA aptamer (quencher-CACCTGGGGGAGTATTGCGGAGGAAGG + anchor), 100 nM annealed; ATP concentration: 500 uM; one replicate
# In short: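 For every switch-domain sequence, the fluorescence ratio is the mean of per-cluster values, each being summed target-cycle Cy3 intensity over summed buffer-cycle Cy3 intensity. Clusters outside 100-1000 RFU were excluded. On a modified Illumina MiSeq flow-cell, the Cy3-labelled switching-strand clusters were annealed to 100 nM quencher-labelled ATP aptamer, imaged in selection buffer and then after 15 min with 500 uM ATP at 22 °C. Five such cycles were run, with NaOH stripping and re-annealing between them.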
# 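Note: ATP exposure 15 min at 22 °C before imaging.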
row,Sequence,switch fluorescence ratio
1,CACCCGTTCA,1.06
2,CACCGACGAA,1.44
3,CACCGTGCGC,1.3
4,CACCGTGTCC,1.18
5,CACCGTTCCT,2.73
6,CACCTAAATA,1.05
7,CACCTACCTG,1.3
8,CACCTATGCA,1.1
9,CACCTGCGGC,1.04
10,CACCTGTTAG,1.01
11,CACCTTGGCA,1.04
12,CACCTTTTCT,0.975
13,CACGAACGTG,1.04
14,CACGAACTCA,1.34
15,CACGAAGGCT,1.06
16,CACGATATAC,2.29
17,CACGATGTTA,0.97
18,CACGATTTC,1.05
19,CACGCGGTTT,1.02
20,CACGCTAACC,1.39
21,CACGCTGGGA,1.07
22,CACGCTGTCA,1.01
23,CACGGCTAGG,1.02
24,CACGGGACGG,1.21
25,CACGGTGTGA,1
26,CACGTAATAC,2.39

row,Sequence,switch fluorescence ratio
1,CACGTACTC,1.52
2,CACGTCACGA,1.56
3,CACGTCAGAC,1.3
4,CACGTCGGGC,0.992
5,CACGTGAAAA,1.05
6,CACGTGTGAA,1.03
7,CACGTTTGAA,1
8,CACGTTTGTG,0.989
9,CACGTTTTGT,0.959
10,CACTAAGGG,1.01
11,CACTAGACGT,1.28
12,CACTAGCCCA,1
13,CACTAGCTAC,2.7
14,CACTAGTCAA,1.1
15,CACTCGGGGG,1.03
16,CACTCTAAGG,1.04
17,CACTCTATCA,1.03
18,CACTGAGGGG,1.05
19,CACTGATAGA,1.04
20,CACTGATGAA,0.984
21,CACTGGCAGC,1.06
22,CACTGGCCCT,1.05
23,CACTGGGATA,1.02
24,CACTGGGTCG,0.981
25,CACTGGTTAT,0.951
26,CACTGTGCAC,1.04

row,Sequence,switch fluorescence ratio
1,CACTGTTGTC,0.998
2,CACTTAATTT,1.02
3,CACTTAGCCG,0.992
4,CACTTAGCTT,1.12
5,CACTTAGGTA,1.05
6,CACTTATGCT,0.988
7,CACTTATGGA,0.98
8,CACTTATTTT,1.02
9,CACTTGATCG,1.05
10,CACTTGCCGT,1.05
11,CACTTGCTAT,1.07
12,CACTTGCTGA,0.956
13,CACTTGGGAC,1.02
14,CACTTTTAAT,1.06
15,CACTTTTGGA,1.02
16,CAGAAAGGAA,1.03
17,CAGAAAGGGG,1.05
18,CAGAAATTGA,1
19,CAGAAATTTT,1.32
20,CAGAACCGTG,0.996
21,CAGAACCGTT,1.04
22,CAGAACCTAG,1.05
23,CAGAAGATCG,0.998
24,CAGAATCGGC,0.984
25,CAGAATGTAG,0.983
26,CAGAATTGCG,0.976

row,Sequence,switch fluorescence ratio
1,CAGACAATAT,1.45
2,CAGACAGTCT,1.05
3,CAGACATAAG,1
4,CAGACGACCC,1.68
5,CAGACTAAT,0.964
6,CAGACTGTCC,1.05
7,CAGAGACTCG,0.972
8,CAGAGAGGTA,1
9,CAGAGATGAC,1.06
10,CAGAGATGGA,0.987
11,CAGAGCCCTT,0.988
12,CAGAGGCCTA,1.02
13,CAGAGGGTGA,1.07
14,CAGAGGTCCG,1.01
15,CAGAGTCAGG,1.02
16,CAGAGTCCAT,0.986
17,CAGAGTGGCC,1
18,CAGAGTGGTA,1.01
19,CAGAGTTATC,0.964
20,CAGATAACTT,0.992
21,CAGATACTA,1.01
22,CAGATAGAGG,0.961
23,CAGATCCAAG,0.975
24,CAGATCCAGG,1.14
25,CAGATCGGCT,1.09
26,CAGATCTTGT,0.947

row,Sequence,switch fluorescence ratio
1,CAGATGTTG,1.05
2,CAGATTAATA,0.977
3,CAGATTAGAT,0.989
4,CAGATTGCAC,1.02
5,CAGATTGGAA,0.988
6,CAGCAAATCC,1.68
7,CAGCAAGGA,3.4
8,CAGCACGTCG,1.08
9,CAGCATGTGT,1.02
10,CAGCCCGTTC,1.09
11,CAGCCCGTTG,1
12,CAGCCGCCTG,1.16
13,CAGCCTGGGA,0.973
14,CAGCGACACT,1.34
15,CAGCGAGGCG,1.06
16,CAGCGATTAT,1.09
17,CAGCGGAACC,1.08
18,CAGCGGCCTG,0.979
19,CAGCGGGAGA,1.06
20,CAGCGGTTCC,1.05
21,CAGCTAAGG,1.05
22,CAGCTAGCGT,1.03
23,CAGCTAGTCA,1.05
24,CAGCTGAGGA,0.978
25,CAGCTGCAAG,1.18
26,CAGCTGGTGA,0.988

row,Sequence,switch fluorescence ratio
1,CAGCTTCTT,0.974
2,CAGCTTTCCG,1.06
3,CAGGAACTAT,0.944
4,CAGGAAGGCG,0.973
5,CAGGACAATT,1.02
6,CAGGACGGAT,1
7,CAGGAGCCAG,1.06
8,CAGGAGCGTG,1.02
9,CAGGAGTAGG,1.03
10,CAGGAGTCTG,1
11,CAGGAGTTA,1.03
12,CAGGATAAAA,0.993
13,CAGGATCAT,0.983
14,CAGGATCCGG,0.974
15,CAGGATCTTA,1.03
16,CAGGATTCAT,0.949
17,CAGGATTCTC,0.986
18,CAGGATTCTT,1.06
19,CAGGCATGGG,1.01
20,CAGGCCATA,1.01
21,CAGGCCTTGC,1.06
22,CAGGCGTCGC,1.06
23,CAGGCTACGC,1.01
